This passage reports binding signal results from article PMC12820563, “FoxP3 forms a head-to-head dimer in vivo and stabilizes its multimerization on adjacent microsatellites”.

Some of the results follow.

The target of this assay is T1, MBP-FoxP1dN (Mus musculus, UniProt P58462 326-579).
T1 sequence: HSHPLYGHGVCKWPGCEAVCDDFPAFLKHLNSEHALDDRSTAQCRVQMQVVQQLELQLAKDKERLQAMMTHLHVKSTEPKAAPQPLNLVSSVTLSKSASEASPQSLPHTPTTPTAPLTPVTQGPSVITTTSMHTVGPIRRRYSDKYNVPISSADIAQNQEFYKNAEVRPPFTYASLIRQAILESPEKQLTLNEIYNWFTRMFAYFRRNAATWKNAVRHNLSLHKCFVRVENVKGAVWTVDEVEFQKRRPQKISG
The assay is described as follows: PD-seq (MBP pull-down with sequencing); 20 mM Tris-HCl pH 7.5, 100 mM NaCl, 1.5 mM MgCl2, 0.4 uM protein, 0.1 uM dsDNA library, 30 min, room temperature, amylose pull-down; high values mean tight binding. The following applies: protein: recombinant; tags: His6-MBP; chain copies: 2; dsDNA, one strand shown. In outline:
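Mouse FoxP3 or FoxP1 fragment lacking the N-terminus, His6-MBP-tagged and expressed in E. coli, was incubated at 0.4 µM with 0.1 µM Klenow-filled degenerate double-stranded DNA library for 30 min at room temperature in Tris pH 7.5 buffer with NaCl and MgCl2. Complexes captured on amylose resin were washed three times and their DNA sequenced on Illumina. Binding is reads-per-million enrichment of pull-down over input, replicates pooled.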
Turning to “GATGATTGTTCTCCCAGCTGATGAATTAAGCCTCTCGAGTAAACAAATTTTCCTAATCTTTCTGTTCAAGCGCCATCTAC”, the binding signal is 0.897 RPM ratio (pull-down/input).

In the case of “GATGATTGTTCTCCCAGCTGATGAATTACAGAACTCGAGTAAACAAATTTTCCTAATCTTTCTGTTCAAGCGCCATCTAC”, the binding signal was 1.01 RPM ratio (pull-down/input).

In the case of “GATGATTGTTCTCCCAGCTGATGAATTGGCAGTTTCGAGTAAACAAATTTTCCTAATCTTTCTGTTCAAGCGCCATCTAC”, the binding signal is 0.842 RPM ratio (pull-down/input).

Turning to “GATGATTGTTCTCCCAGCTGATGAATTAGCTTCTTCGAGTAAACAAATTTTCCTAATCTTTCTGTTCAAGCGCCATCTAC”, the binding signal was 1 RPM ratio (pull-down/input).

For “GATGATTGTTCTCCCAGCTGATGAATTCTCGAAATCGAGTAAACAAATTTTCCTAATCTTTCTGTTCAAGCGCCATCTAC”, the binding signal was 0.871 RPM ratio (pull-down/input).

For the sequence “GATGATTGTTCTCCCAGCTGATGAATTTAATTCTTCGAGTAAACAAATTTTCCTAATCTTTCTGTTCAAGCGCCATCTAC”, the binding signal was 0.967 RPM ratio (pull-down/input).

Regarding “GATGATTGTTCTCCCAGCTGATGAATTGAAACTATCGAGTAAACAAATTTTCCTAATCTTTCTGTTCAAGCGCCATCTAC”, the binding signal was 0.956 RPM ratio (pull-down/input).

Consider “GATGATTGTTCTCCCAGCTGATGAATTCTGGAATTCGAGTAAACAAATTTTCCTAATCTTTCTGTTCAAGCGCCATCTAC”, for which the binding signal was 0.887 RPM ratio (pull-down/input).

On to “GATGATTGTTCTCCCAGCTGATGAATTCTGGCGTTCGAGTAAACAAATTTTCCTAATCTTTCTGTTCAAGCGCCATCTAC”, for which the binding signal is 0.829 RPM ratio (pull-down/input).

Take “GATGATTGTTCTCCCAGCTGATGAATTTCCGTTCTCGAGTAAACAAATTTTCCTAATCTTTCTGTTCAAGCGCCATCTAC”: the binding signal was 0.843 RPM ratio (pull-down/input).

Take “GATGATTGTTCTCCCAGCTGATGAATTCGACTAGTCGAGTAAACAAATTTTCCTAATCTTTCTGTTCAAGCGCCATCTAC”: the binding signal was 0.754 RPM ratio (pull-down/input).

For the sequence “GATGATTGTTCTCCCAGCTGATGAATTGCAATCTTCGAGTAAACAAATTTTCCTAATCTTTCTGTTCAAGCGCCATCTAC”, the binding signal was 1.32 RPM ratio (pull-down/input).

Regarding “GATGATTGTTCTCCCAGCTGATGAATTCCATAAGTCGAGTAAACAAATTTTCCTAATCTTTCTGTTCAAGCGCCATCTAC”, the binding signal was 0.896 RPM ratio (pull-down/input).

As for “GATGATTGTTCTCCCAGCTGATGAATTCGAACGTTCGAGTAAACAAATTTTCCTAATCTTTCTGTTCAAGCGCCATCTAC”, the binding signal was 0.852 RPM ratio (pull-down/input).

As for “GATGATTGTTCTCCCAGCTGATGAATTACATTACTCGAGTAAACAAATTTTCCTAATCTTTCTGTTCAAGCGCCATCTAC”, the binding signal was 1.27 RPM ratio (pull-down/input).

In the case of “GATGATTGTTCTCCCAGCTGATGAATTAACACAGTCGAGTAAACAAATTTTCCTAATCTTTCTGTTCAAGCGCCATCTAC”, the binding signal was 1.1 RPM ratio (pull-down/input).

“GATGATTGTTCTCCCAGCTGATGAATTGCGTCGTTCGAGTAAACAAATTTTCCTAATCTTTCTGTTCAAGCGCCATCTAC”: the binding signal was 1.04 RPM ratio (pull-down/input).

For “GATGATTGTTCTCCCAGCTGATGAATTGAGCTAATCGAGTAAACAAATTTTCCTAATCTTTCTGTTCAAGCGCCATCTAC”, the binding signal is 0.97 RPM ratio (pull-down/input).

For “GATGATTGTTCTCCCAGCTGATGAATTATTTCCCTCGAGTAAACAAATTTTCCTAATCTTTCTGTTCAAGCGCCATCTAC”, the binding signal is 1.09 RPM ratio (pull-down/input).

Take “GATGATTGTTCTCCCAGCTGATGAATTCTTTGTGTCGAGTAAACAAATTTTCCTAATCTTTCTGTTCAAGCGCCATCTAC”: the binding signal was 1.06 RPM ratio (pull-down/input).

For the sequence “GATGATTGTTCTCCCAGCTGATGAATTACTCGGTTCGAGTAAACAAATTTTCCTAATCTTTCTGTTCAAGCGCCATCTAC”, the binding signal is 0.957 RPM ratio (pull-down/input).

For “GATGATTGTTCTCCCAGCTGATGAATTCATGACATCGAGTAAACAAATTTTCCTAATCTTTCTGTTCAAGCGCCATCTAC”, the binding signal is 1.08 RPM ratio (pull-down/input).

Turning to “GATGATTGTTCTCCCAGCTGATGAATTCTTTTGTTCGAGTAAACAAATTTTCCTAATCTTTCTGTTCAAGCGCCATCTAC”, the binding signal was 1.03 RPM ratio (pull-down/input).

For “GATGATTGTTCTCCCAGCTGATGAATTGCACGGATCGAGTAAACAAATTTTCCTAATCTTTCTGTTCAAGCGCCATCTAC”, the binding signal is 1.03 RPM ratio (pull-down/input).

As for “GATGATTGTTCTCCCAGCTGATGAATTATAATGATCGAGTAAACAAATTTTCCTAATCTTTCTGTTCAAGCGCCATCTAC”, the binding signal is 1.13 RPM ratio (pull-down/input).

In the case of “GATGATTGTTCTCCCAGCTGATGAATTATCTTCTTCGAGTAAACAAATTTTCCTAATCTTTCTGTTCAAGCGCCATCTAC”, the binding signal was 1 RPM ratio (pull-down/input).

Regarding “GATGATTGTTCTCCCAGCTGATGAATTAAAGCTGTCGAGTAAACAAATTTTCCTAATCTTTCTGTTCAAGCGCCATCTAC”, the binding signal is 0.981 RPM ratio (pull-down/input).

With “GATGATTGTTCTCCCAGCTGATGAATTCAAAATTTCGAGTAAACAAATTTTCCTAATCTTTCTGTTCAAGCGCCATCTAC”, the binding signal is 0.937 RPM ratio (pull-down/input).

As for “GATGATTGTTCTCCCAGCTGATGAATTCGAGGCGTCGAGTAAACAAATTTTCCTAATCTTTCTGTTCAAGCGCCATCTAC”, the binding signal was 0.901 RPM ratio (pull-down/input).

Take “GATGATTGTTCTCCCAGCTGATGAATTGCCGTCATCGAGTAAACAAATTTTCCTAATCTTTCTGTTCAAGCGCCATCTAC”: the binding signal was 1.08 RPM ratio (pull-down/input).

As to “GATGATTGTTCTCCCAGCTGATGAATTTTAAACCTCGAGTAAACAAATTTTCCTAATCTTTCTGTTCAAGCGCCATCTAC”, the binding signal is 0.783 RPM ratio (pull-down/input).

For “GATGATTGTTCTCCCAGCTGATGAATTGTGGTCTTCGAGTAAACAAATTTTCCTAATCTTTCTGTTCAAGCGCCATCTAC”, the binding signal is 1.17 RPM ratio (pull-down/input).
